Laboratory results published in PubChem BioAssay AID2451 (National Center for Advancing Translational Sciences (NCATS), 2010).
The whole screen tested about 290,000 compounds, of which about 2,100 (0.72%) were called active. The inconclusive results got no clear call from the source; some entries with a clear call stand among them for comparison. Calls follow the shape of the dose curve; as a rule, active = well fitted inhibition curve with a large enough effect; inconclusive = small, poorly fitted or top-dose-only effect, or effect the other way; inactive = flat fitted curve, though single readings scatter. Where the call is inconclusive, the potency comes from a doubtful curve fit.

biological target: Fructose-bisphosphate aldolase (Giardia intestinalis (strain ATCC 50803 / WB clone C6)) (UniProt A8B2U2); assay: qHTS Assay for Inhibitors of Fructose-1,6-bisphosphate Aldolase from Giardia Lamblia; conditions: purified Giardia FBPA; activity, negative = inhibition: at 59.6 µM (top of the series) unless noted; also: nearly all actives have a fitted effect of over 55% in size
How it was run: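 40 nM FBPA preincubated 10 min at RT with compound (up to 57.5 uM final), then substrate plus GAPDH/TPI/NAD/arsenate coupling and diaphorase/resazurin added. Fluorescence read after 20 min at RT, 525/598 nm.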
% is scaled to controls: 0 for no effect and ±100 for the full control effect; potency is read from the fitted curve at half-maximal effect; tags tell the direction and shape of the fitted curve.

Chain of UniProt A8B2U2 (A8B2U2 whole entry, looked up): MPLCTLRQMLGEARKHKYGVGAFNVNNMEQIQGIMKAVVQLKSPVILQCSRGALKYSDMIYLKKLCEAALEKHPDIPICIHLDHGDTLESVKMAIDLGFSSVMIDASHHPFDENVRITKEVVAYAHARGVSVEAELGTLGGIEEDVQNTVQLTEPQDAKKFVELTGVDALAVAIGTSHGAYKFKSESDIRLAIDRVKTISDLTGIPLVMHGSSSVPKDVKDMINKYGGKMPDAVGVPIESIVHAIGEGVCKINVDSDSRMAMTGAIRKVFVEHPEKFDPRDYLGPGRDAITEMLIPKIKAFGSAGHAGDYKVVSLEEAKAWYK

| SMILES | Potency | activity, negative = inhibition |
| --- | --- | --- |
| COc1cccc(CNc2ncc(-c3ccccc3)n2C)c1 | inconclusive: 14.1 µM [inhibitor, partial curve] |  |
| Cc1cccc(CNc2ccnc(-c3ccc(N(C)C)cc3)n2)c1 | inconclusive: 17.7 µM [inhibitor, partial curve] |  |
| C/C(=N\NC(=O)c1nonc1N)c1cccs1 | inconclusive: 15.8 µM [inhibitor, single point] |  |
| CN(C)c1ncc2nc(-c3cccc(C#N)c3)c(=O)n(CCC#N)c2n1 | inactive |  |
| c1ccc(-c2cc(N3CCOCC3)nc3ccccc23)cc1 | inconclusive: 14.1 µM [inhibitor, partial curve] |  |
| CCc1ccccc1OCC(=O)Nc1nc(-c2cccnc2)cs1 | inconclusive: 19.9 µM [inhibitor, single point] |  |
| CCOC(=O)Cc1csc(NC(=O)CCCc2ccccc2)n1 | active: 35.5 µM |  |
| COC(=O)c1cc(OC)c(OC)cc1NC(=S)NC(=O)c1ccco1 | active: 12.6 µM |  |
| O=C1C=C(Nc2cccc3cccnc23)c2ccccc2C1=O | active: 1.58 µM |  |
| Cc1cc(C(=O)Nc2ccc(C(=O)O)cc2)c(-c2ccccc2)o1 | inconclusive: 17.7 µM [activator, partial curve] |  |
| CN(C)c1ccc(NC(=O)N2CCOCC2)cc1 | inconclusive: 6.29 µM [inhibitor, partial curve] |  |
| CCOc1ccc(C=Nc2cccc3ncccc23)cc1 | inconclusive: 7.06 µM [inhibitor, full curve] |  |
| Cc1[nH]cnc1CCN | inconclusive: 19.9 µM [inhibitor, single point] |  |
| O=C(CC1CC2CCC1C2)Nc1nc(-c2ccccn2)cs1 (configuration not stated) | inconclusive: 35.4 µM [inhibitor, single point] |  |
| O=C(CCCn1c(=S)[nH]c2ccsc2c1=O)NCc1ccco1 | active: 15.8 µM |  |
| CN(C)CCNC(=O)CCn1nc(-c2ccc(Cl)cc2)ccc1=O |  | inconclusive: 34% [activator] |
| CCNc1ncc2nc(-c3cn(C)c4ccccc34)c(=O)n(-c3ccccc3)c2n1 | inactive |  |
| CN(C)[C@H]1C(=O)C(C(=O)NCN2CCCC2)=C(O)[C@]2(O)C(=O)C3=C(O)c4c(O)cccc4[C@@](C)(O)[C@H]3C[C@@H]12 | active: 4.46 µM |  |
| O=c1c(-c2ccccc2)c[nH]n1-c1cccc([N+](=O)[O-])c1 | inconclusive: 15.8 µM [inhibitor, partial curve] |  |
| O=C(N/N=C/c1ccc2c(c1)OCO2)c1ccc(NC(=O)c2ccc(F)cc2)cc1 | inactive |  |
| O=C1C(=O)N(O)C2CCCCC2N1O (configuration not stated) | inconclusive: 14.1 µM [inhibitor, partial curve] |  |
| C=CC(C1=CC(=O)C(OC)=C(OC)C1=O)c1ccccc1 (configuration not stated) | active: 17.7 µM |  |
| COC(=O)c1ccc(CSc2nnc(NC(=O)C3CC(=O)N(Cc4ccc(C)cc4)C3)s2)cc1 (configuration not stated) | inconclusive: 17.7 µM [activator, single point] |  |
| COc1cc(N=c2ssnc2Cl)cc(OC)c1OC | active: 19.9 µM |  |

| SMILES | Potency | activity, negative = inhibition |
| --- | --- | --- |
| CCOC(=O)c1c(-c2ccc(C)cc2)csc1NC(=O)CCN1CC(C)OC(C)C1 (configuration not stated) | inconclusive: 15.8 µM [inhibitor, single point] |  |
| O=C(/C=C/c1ccco1)NC(=S)NNC(=O)c1ccco1 | inconclusive: 5.61 µM [activator, single point] |  |
| Cc1sc2ncnc(N/N=C/c3ccccc3O)c2c1C | inconclusive: 25.1 µM [activator, single point] |  |
| CC(C)Cn1c(N)c(C(=O)NCc2cccs2)c2nc3ccccc3nc21 | inconclusive: 5 µM [inhibitor, partial curve] |  |
| COc1cc(CNC2CCCCC2OC)cc(OC)c1 (configuration not stated) | inconclusive: 19.9 µM [inhibitor, partial curve] |  |
| COc1cc(C(=O)Nc2ccc(NC(=O)c3cccc(Cl)c3)nc2)cc(OC)c1OC | inactive |  |
| C[n+]1cccc(C(=O)[O-])c1 | inconclusive: 35.4 µM [inhibitor, single point] |  |
| CCOC(=O)N1CCC(N(CCN(C)C)C(=S)Nc2ccc(Oc3ccccc3)cc2)CC1 | inconclusive: 19.9 µM [inhibitor, single point] |  |
| Cc1ccc(NC(=S)NNC(=O)c2ccccc2O)c(C)c1 | inconclusive: 19.9 µM [activator, partial curve] |  |
| O=C(Nc1nnc(SCc2ccccc2)s1)c1cccc([N+](=O)[O-])c1 | inconclusive: 17.7 µM [inhibitor, partial curve] |  |
| CCc1cccc(C)c1NC(=O)CNCc1ccccc1 | inconclusive: 25.1 µM [inhibitor, partial curve] |  |
| Cc1onc(-c2ccccc2)c1C(=O)NNC(=S)NC(=O)c1ccc(F)cc1 | inconclusive: 11.2 µM [activator, partial curve] |  |
| Cc1cc2nc(CSc3ccccc3)cc(=O)n2[nH]1 | inconclusive: 17.7 µM [inhibitor, partial curve] |  |
| CN1CCc2c(sc3c2C(=O)NC(c2ccco2)N3)C1 (configuration not stated) | inconclusive: 14.1 µM [inhibitor, partial curve] |  |
| CCOC(=O)C1=C(N)OC2=C(C(=O)CCC2)C1c1cccs1 (configuration not stated) | active: 12.6 µM |  |
| COc1cccc(CNC(=O)C(c2ccc(Cl)cc2)C(C)C)c1 (configuration not stated) | inactive |  |
| Cc1ccc2c(c1)c1c(n2CC(O)Cn2c(C)nc3ccccc32)C(=O)CCC1 (configuration not stated) | inactive |  |
| CCCCNC(=O)C(CC)Sc1nc2sc(C(=O)OC)c(C)c2c(=O)n1N (configuration not stated) | inconclusive: 25.1 µM [inhibitor, single point] |  |
| CCOc1cccc2cc(-c3nnc(NCc4ccco4)s3)c(=O)oc12 | inactive |  |
| O=[N+]([O-])c1cc(/C=N/Nc2nc3ccccc3[nH]2)c(O)cc1O | inconclusive: 5 µM [inhibitor, single point] |  |
| CN(C)S(=O)(=O)c1cccc(NC(=O)c2ccc(COc3ccccc3)cc2)c1 | inactive |  |
| O=C(NNc1ncccc1-n1cccc1)c1ccc(Cl)cc1 | inconclusive: 15.8 µM [inhibitor, partial curve] |  |
| COCC(=O)Nc1ccc(N(C)C)cc1 | inconclusive: 35.4 µM [inhibitor, single point] |  |
| COc1ccc(-c2cc(-c3ccccc3)nc(NN)n2)cc1OC | inconclusive: 20 µM [inhibitor, partial curve] |  |

| SMILES | Potency | activity, negative = inhibition |
| --- | --- | --- |
| NS(=O)(=O)c1ccc(CCNCC(=O)N2CCC(Cc3ccccc3)CC2)cc1 | inconclusive: 31.5 µM [inhibitor, single point] |  |
| NC(=O)CC(NC(=O)Cc1ccc(Br)cc1)c1ccc(NC2CC3CCC2C3)c([N+](=O)[O-])c1 (configuration not stated) | inactive |  |
| CCCNC(=O)c1c(C)cc(=O)oc1C | inactive |  |
| COc1ccc(CN2CCNC(=O)C2CC(=O)N2CCCCO2)cc1OC (configuration not stated) | inconclusive: 12.6 µM [inhibitor, partial curve] |  |
| O=S(=O)(c1ccc(Cl)cc1)N1CCN(C(=S)Nc2ccccc2F)CC1 | inactive |  |
| O=C(Cc1ccccc1)N1CCN(Cc2ccccc2Cl)CC1 | inconclusive: 17.8 µM [inhibitor, single point] |  |
| COc1cc(NC(C)CCCN)c2ncccc2c1Oc1ccccc1 (configuration not stated) | inconclusive: 9.98 µM [inhibitor, partial curve] |  |
| CCC(=O)NC(=S)Nc1ccc(NC(=O)c2ccccc2[N+](=O)[O-])cc1 | inactive |  |
| O=[N+]([O-])c1ccc(C=Nc2ccc(Cl)c([N+](=O)[O-])c2)s1 | inconclusive: 19.9 µM [inhibitor, partial curve] |  |
| N#C/C(=C/c1ccc(N2CCCCCC2)o1)c1ccc(Cl)cc1 | inconclusive: 15.8 µM [inhibitor, single point] |  |
| O=C(O)Cn1ncc2c1-c1ccoc1CC2 | inconclusive: 19.9 µM [inhibitor, single point] |  |
| CC1=[N+](C)c2ccc3ccccc3c2C1(C)C | inconclusive: 7.06 µM [inhibitor, partial curve] |  |
| O=C(O)CC(C(=O)O)N1C(=O)/C(=C/c2ccc(-c3nc4ccccc4s3)o2)SC1=S (configuration not stated) | inconclusive: 19.9 µM [inhibitor, single point] |  |
| O=[N+]([O-])c1ccc(N=Nc2ncc[nH]2)cc1 | inconclusive: 4.47 µM [inhibitor, full curve] |  |
| CCOc1cc(NC(=S)NCCCN2CCOCC2)c(OCC)cc1NC(=O)C(C)C | inconclusive: 15.8 µM [inhibitor, partial curve] |  |
| Clc1cccc(CN2CCC(Cc3ccccc3)CC2)c1 | inconclusive: 12.6 µM [inhibitor, partial curve] |  |
| O=C1C(Cl)=C(Nc2ccccc2O)C(=O)N1CCc1ccccc1 | inactive |  |
| c1cncc(CNCc2ccco2)c1 | inconclusive: 17.8 µM [inhibitor, partial curve] |  |
| CCN1CCN(CC(=O)Nc2nc3ccc(C)cc3s2)CC1 | inconclusive: 11.2 µM [inhibitor, partial curve] |  |
| COc1cc(-c2n[nH]c(=S)n2-c2ccc(Br)cc2)cc(OC)c1OC |  | inconclusive: 31.6% [activator] |
| Cc1ccc(-c2nc(S(=O)(=O)c3ccc(C)cc3)c(N(C)C)o2)cc1 | inconclusive: 22.4 µM [inhibitor, single point] |  |
| Cc1ccc(C(O)Cn2cc([N+](=O)[O-])nc2C)cc1 (configuration not stated) | inactive |  |
| CCOc1ccc2nc3c(cc2c1)CN(CCCO)C(=NCCOC)S3 | inconclusive: 19.9 µM [inhibitor, partial curve] |  |
| Cc1cc(C)c(C#N)c(SCC(=O)Nc2ccc(S(=O)(=O)Nc3onc(C)c3C)cc2)n1 | inconclusive: 15.8 µM [activator, partial curve] |  |
